Source: patent publication US4504476A, “Method of administering calcium channel blocking agents” (priority 1983, dated 1985)

How the values were obtained:
[1] = molecular target: T1, cardiac sarcolemmal membranes (dihydropyridine binding site) (Canis lupus familiaris, UniProt A0A8I3QY31); assay: [3H] nimodipine specific binding to dog heart membranes; conditions: for stimulation of [3H] nimodipine specific binding: 0.17 nM [3H] nimodipine, 15 min at 37° C., FIG. 2
T1 construct: Membrane fractions of highly enriched in plasma membrane markers were prepared from dog ventricles; from tissue; host or cells: dog heart ventricle, membrane fraction enriched in plasma membrane (sarcolemma)
Method: FIG. 1--Membrane fractions of highly enriched in plasma membrane markers were prepared from dog ventricles according to Van Alstyne et al. 20-50 μg protein was incubated for 15 min at 37° C. in 1 ml medium containing 50 mM Tris-HCl (pH 7.4), different concentrations of [^3 H] nimodipine (160 Ci/mmol) and in the absence (O) or the presence of 10^-5 M diltiazem (Δ) or of 10^-6 M nimodipine (.quadrature.). The reaction was stopped by addition of 5 ml of ice-cold double-distilled water and filtration on Whatmann GF/F glass fiber filters. The filters were washed three times and the trapped radioactivity counted by liquid scintillation spectrometry. Specific binding was taken as the difference between control binding and the binding in the presence of unlabelled nimodipine (non-specific).
FIG. 2--Dog heart membranes were incubated for 15 min at 37° C. in the presence of 0.17 nM [^3 H] nimodipine, 50 mM Tris-HCl (pH 7.4) and the different concentrations of nifedipine (Δ), verapamil (X), d-cis-diltiazem (O), 1-cis-diltiazem ( ), thiazesim (.quadrature.) or clonazepam ( ). The specific binding was estimated as described in the legend to FIG. 1.
Incubation of 0° C. was carried out for 120 minutes. […] Each drug was tested on 4 different membrane preparations (means ±S.E.M.).

[2] = test system: retrogradely perfused rat hearts (Langendorff preparation); assay: contractility (dP/dt) of retrogradely perfused rat hearts (Langendorff preparation); conditions: for pIC50: Rattus norvegicus; for potentiation of the negative inotropic response of nimodipine: low concentration of diltiazem isomer (250 nM) perfused before nimodipine
[3] = read-out: I50, negative inotropy (contractile force, dP/dt)

T1 sequence (A0A8I3QY31 1-2188): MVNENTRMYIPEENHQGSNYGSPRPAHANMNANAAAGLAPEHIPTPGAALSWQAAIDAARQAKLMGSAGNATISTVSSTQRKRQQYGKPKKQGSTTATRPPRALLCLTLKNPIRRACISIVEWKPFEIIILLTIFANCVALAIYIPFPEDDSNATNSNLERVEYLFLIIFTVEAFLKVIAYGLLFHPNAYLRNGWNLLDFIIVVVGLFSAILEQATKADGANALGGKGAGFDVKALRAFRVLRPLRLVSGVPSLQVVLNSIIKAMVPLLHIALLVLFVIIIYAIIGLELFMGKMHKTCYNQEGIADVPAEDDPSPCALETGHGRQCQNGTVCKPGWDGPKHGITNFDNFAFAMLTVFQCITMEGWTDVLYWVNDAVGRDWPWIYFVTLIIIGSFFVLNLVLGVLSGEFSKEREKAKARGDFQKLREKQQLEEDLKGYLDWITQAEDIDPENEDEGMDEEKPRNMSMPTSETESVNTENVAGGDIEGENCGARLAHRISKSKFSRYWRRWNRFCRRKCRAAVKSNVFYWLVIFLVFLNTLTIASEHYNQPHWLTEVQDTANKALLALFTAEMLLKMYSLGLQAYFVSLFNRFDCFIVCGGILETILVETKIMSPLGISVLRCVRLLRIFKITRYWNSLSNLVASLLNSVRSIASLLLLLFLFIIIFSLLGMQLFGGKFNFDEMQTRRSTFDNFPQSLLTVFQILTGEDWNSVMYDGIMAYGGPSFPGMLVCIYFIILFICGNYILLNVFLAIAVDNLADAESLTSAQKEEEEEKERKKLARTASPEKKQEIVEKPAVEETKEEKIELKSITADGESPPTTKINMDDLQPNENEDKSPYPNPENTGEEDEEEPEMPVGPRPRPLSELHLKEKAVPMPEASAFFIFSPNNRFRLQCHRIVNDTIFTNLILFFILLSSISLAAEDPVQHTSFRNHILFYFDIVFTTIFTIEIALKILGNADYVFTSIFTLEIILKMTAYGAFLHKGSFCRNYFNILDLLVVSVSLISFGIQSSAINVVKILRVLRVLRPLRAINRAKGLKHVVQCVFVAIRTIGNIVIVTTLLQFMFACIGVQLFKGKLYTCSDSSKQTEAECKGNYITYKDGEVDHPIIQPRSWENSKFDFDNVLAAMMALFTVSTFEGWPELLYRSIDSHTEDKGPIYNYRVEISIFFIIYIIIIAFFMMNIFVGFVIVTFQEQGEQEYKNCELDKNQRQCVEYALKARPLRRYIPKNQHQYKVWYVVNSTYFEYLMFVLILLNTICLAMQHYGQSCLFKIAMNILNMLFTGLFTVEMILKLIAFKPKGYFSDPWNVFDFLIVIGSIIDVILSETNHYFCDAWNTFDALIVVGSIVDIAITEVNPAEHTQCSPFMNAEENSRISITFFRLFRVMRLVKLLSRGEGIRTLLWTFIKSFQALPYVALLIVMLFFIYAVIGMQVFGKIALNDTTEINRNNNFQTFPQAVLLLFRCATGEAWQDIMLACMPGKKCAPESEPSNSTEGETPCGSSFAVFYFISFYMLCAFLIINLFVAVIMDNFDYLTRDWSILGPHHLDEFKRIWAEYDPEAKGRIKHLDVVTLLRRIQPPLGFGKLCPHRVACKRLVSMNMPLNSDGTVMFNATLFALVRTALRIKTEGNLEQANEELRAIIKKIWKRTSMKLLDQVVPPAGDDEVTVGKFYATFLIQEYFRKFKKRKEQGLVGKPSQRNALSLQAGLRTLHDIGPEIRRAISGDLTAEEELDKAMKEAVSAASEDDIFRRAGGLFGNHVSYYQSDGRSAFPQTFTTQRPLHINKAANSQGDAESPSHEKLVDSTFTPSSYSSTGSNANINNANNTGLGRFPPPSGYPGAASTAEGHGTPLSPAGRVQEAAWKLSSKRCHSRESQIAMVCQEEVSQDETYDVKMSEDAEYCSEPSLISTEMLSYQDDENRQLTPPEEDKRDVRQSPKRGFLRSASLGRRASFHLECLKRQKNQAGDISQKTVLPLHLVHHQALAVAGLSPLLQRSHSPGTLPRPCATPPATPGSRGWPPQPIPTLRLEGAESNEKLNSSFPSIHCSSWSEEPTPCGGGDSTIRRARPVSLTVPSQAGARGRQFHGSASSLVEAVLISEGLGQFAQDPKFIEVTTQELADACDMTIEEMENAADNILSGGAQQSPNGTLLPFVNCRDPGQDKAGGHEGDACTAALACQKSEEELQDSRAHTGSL

## O=C1CN=C(c2ccccc2Cl)c2cc([N+](=O)[O-])ccc2N1 [clonazepam]
[1]
  stimulation of [3H] nimodipine specific binding: not produced

## COc1ccc([C@@H]2Sc3ccccc3N(CCN(C)C)C(=O)[C@@H]2OC(C)=O)cc1 [d-cis-diltiazem]
[1]
  stimulation of [3H] nimodipine specific binding: produced
[2]; [3]
  pIC50: 6.10
[2]
  potentiation of the negative inotropic response of nimodipine: drastically potentiated

## COc1ccc(C2Sc3ccccc3N(CCN(C)C)C(=O)C2OC(C)=O)cc1 (stereo not drawn) [diltiazem, 3-acetoxy-2,3-dihydro-5-[2-(dimethylamino)ethyl]-2-(p-methyoxyphenyl)-1,5-benzothiazepin-4(5H)-one hydrochloride]
[1]; 10^-5 M diltiazem
  effect on non-specific binding of [3H] nimodipine: without effect
[1]; 10^-5 M diltiazem, Scatchard analysis, FIG. 1
  effect on apparent number of [3H] nimodipine binding sites: increasing the apparent number of binding sites
[2]; 250 nM
  decrease in contractility by itself: only a slight decrease
[2]; washout
  reversibility of negative inotropic response: fully reversible
  reversibility of potentiation of nimodipine response: reversible
  time for effects to be washed out: ≤ 30 min

## CN(C)CCN1C(=O)CC(c2ccccc2)Sc2ccccc21 (stereo not drawn) [thiazesim]
[1]
  stimulation of [3H] nimodipine specific binding: not produced

## COC(=O)C1=C(C)NC(C)=C(C(=O)OC)C1c1ccccc1[N+](=O)[O-] [nifedipine]
[1]
  stimulation of [3H] nimodipine specific binding: not produced

## COCCOC(=O)C1=C(C)NC(C)=C(C(=O)OC(C)C)C1c1cccc([N+](=O)[O-])c1 (stereo not drawn) [nimodipine, isopropyl-(2-methoxyethyl)-2,6-dimethyl-4-(3-nitrophenyl)-1,4-dihydropyridine-3,5-dicarboxylate]
[1]; cardiac membranes
  pKd: 9.70
[2]; [3]
  pIC50: 5.96
[2]; read-out: I50 in hearts not treated with diltiazem
  pIC50: 5.96
[2]; read-out: I50 of nimodipine in the presence of d-cis-diltiazem
  pIC50: 7.48
[2]; read-out: I50 of nimodipine in the presence of l-cis-diltiazem
  pIC50: 6.14
[2]; read-out: observed I50 for nimodipine with diltiazem
  pIC50: 7.48

## COc1ccc([C@H]2Sc3ccccc3N(CCN(C)C)C(=O)[C@H]2OC(C)=O)cc1 [l-cis-diltiazem]
[1]
  stimulation of [3H] nimodipine specific binding: not produced
[2]; [3]
  pIC50: < 3.92
[2]
  potentiation of the negative inotropic response of nimodipine: ineffective

pIC50, pKd: −log10 of the molar value. Counter-ions that a name gives are not always drawn. Like-named read-outs stand apart in the source and are kept apart here.
